The values below come from the supplement of paper PMC11417369.

The other results are listed elsewhere or left out.

The assay concerns PF3D7_0420300 AP2 domain 1 (GST-tagged). The experiment in a line: gcPBM binding intensity (ln(normalized median fluorescence intensity)); higher = stronger DNA binding. The essentials: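 After 1 h on an Agilent 4 × 180k array of primer-extended double-stranded 36-bp intergenic genomic probes and negative controls, bound GST-tagged P. falciparum DNA-binding domains were detected with Alexa488 anti-GST antibody and scanned at 488 nm. The domains had been expressed in E. coli, and binding took place in 1× PBS with 1% milk, 0.2 mg/ml BSA, 0.5% salmon testes DNA and 0.03% Triton X-100. Binding intensity is the highest Masliner-normalised natural-log median intensity across replicate spots of either probe orientation.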
“AATAAAAAAAAACTCATGCACACAATATTATGAAAA [CACACA_site664]”: the “gcPBM binding intensity (ln)” value was found to be 9.64.
For the sequence “CATATATAGATATATACACACATACATACATACATA [CACACA_site7748]”, the “gcPBM binding intensity (ln)” value amounted to 9.59.
As for “TGCATATGCATTATTTGTACATATGTAGATAATTAT [XGTACX_site6930]”, the “gcPBM binding intensity (ln)” value was 9.14.
With “AATAAAATAAATATATGTACATATATATAACCATTA [XGTACX_site5549]” the figure was 9.39; with “AAAAATTACAAATACAAACACACAAATGTTTTTCAT [CACACA_site3551]”, 9.45.
“TTGACATATAAGATATGTACTAATACACACACATAT [XGTACX_site1904]”: the “gcPBM binding intensity (ln)” value was determined as 9.75.
Under “AAATAATAAAACAACACACAAATAGTTAAAATAGAA [CACACA_site5007]” stands 9.88; under “ACATTCTATATATACACACATACATAATAAAGAAAG [CACACA_site2771]”, 9.76; under “TTTTAATGATATATGAGTACACATTGTTTTTTATAA [XGTACX_site1072]”, 9.05.
On to “ATATAATGATGGAAAAGAAAAGAAATAAAAAAAAAA [CACACA_negctrl_site1170]”, for which the “gcPBM binding intensity (ln)” value was found to be 9.21.
Under “TATTTTTATTGGTACTGTACCTATTTAGAAATACAT [XGTACX_site6663]” stands 9.16; under “ATGATTTCATTTGAGAGTACGTAAAAATAATACGTA [XGTACX_site4958]”, 8.92; under “TATTTATAAAAAAATACATGCATTTTTTTTTTTTTT [TGCATGCA_site65]”, 8.74.
Under “TGTTAATTCTTAAGAATTTCCATAATTTCTTCTTTT [CACACA_negctrl_site1065]” stands 9.11; under “TAATACAAAAACAATGTTCTTTCAAACATAAACATA [CACACA_negctrl_site1628]”, 9.19.
Under “TTTGCCATATGACACACACACATGTAAACCCCCTTT [CACACA_site6873]” stands 9.95; under “TTTTTTTTTTTGAAATGTACATTCCAAAAACTGATA [XGTACX_site1495]”, 8.97.
Take “TATATATATATATATTTTTTTTTTTTATGCACATGG [CACACA_negctrl_site1573]”: the “gcPBM binding intensity (ln)” value is 9.
With “CTTTTGAACAGTTCATGTACTCAATTTTTTAATAGT [XGTACX_site6498]” the figure was 9.11.
Under “TAATACCTATGGTATAGTACGTATTATTTTATAGAG [XGTACX_site2078]” stands 9.03; under “TCCCTTCATCTTTTATGTACTAAAAAATTGAATAAT [XGTACX_site2172]”, 9.09; under “TAATACGAATGAGGCACACACCTAGTATACATGCTT [CACACA_site6438]”, 9.45.
Take “AATTAAAATTTTTGAAGTACACTCAAAATAAGTTAT [XGTACX_site4490]”: the “gcPBM binding intensity (ln)” value was 9.02.
Turning to “AAAATAAAAAAAAACACACACATACAAGCATATATA [CACACA_site1585]”, the “gcPBM binding intensity (ln)” value was determined as 10.2.
Under AATTAATGGCTAAAGGTGCACAATATATATATTACA stands 9.46; under “AAAAAAAAATTTAAGGGTACATACAAATATATATAT [XGTACX_site5078]”, 9.37.
Take “TTATATTCTAGAGACACATGCGATTTTTTATTTTAT [TGCATGCA_site649]”: the “gcPBM binding intensity (ln)” value came to 9.42.
For “TGGAATAATCCGCGTACACACATATATATATTAAGA [CACACA_site4253]”, the “gcPBM binding intensity (ln)” value was 9.49.
Turning to “AATAAAAATAGGAATACGCACACGATGATTAATTTA [CACACA_site1836]”, the “gcPBM binding intensity (ln)” value is 9.39.
Under “AATTAACCCTAATTTTGTACATATTCCTTTTCTCAT [XGTACX_site46]” stands 9.61; under “GTTACTATGATTAATGCATGCAAATACCAAAAAAAA [TGCATGCA_site590]”, 9.07; under “TATACCACACGATATACACACTTGTAGACATCTTTT [CACACA_site6232]”, 9.51.
Under “TTGTCTGACTAATTTTTTTCTGTTTGTACGTTCTTA [GTGCAC_negctrl_site602]” stands 9.42; under “TTTTTATACAACTTATAATACATCTGAAAATATAAA [XGTACX_negctrl_site36]”, 8.94.
Turning to “TATCACATATTATGATGTACAAGGTTTCTGACTAAT [XGTACX_site2763]”, the “gcPBM binding intensity (ln)” value worked out at 9.12.
Under “ACAAAATAAATATGAACACACACATTTATGCCTTTA [CACACA_site8346]” stands 9.77.
With “ATAATTATACATATTACACACTCTCTTGATCTTTTT [CACACA_site3853]”, the “gcPBM binding intensity (ln)” value worked out at 9.55.
As to “CATATATAAAAAAACACACACATATTTATATTTATA [CACACA_site6682]”, the “gcPBM binding intensity (ln)” value turned out to be 9.81.
Under “CATATTTCTTACATTTGTACTTAATAAAATTAATCA [XGTACX_site7224]” stands 9.11.
Take “AAAAAAATTTATAAATATTTTATTAATATATTTACC [GTGCAC_negctrl_site690]”: the “gcPBM binding intensity (ln)” value is 8.86.
With “ACACAAAACAAAAAGGTGCTGTATAAATGGGTGTAT [GTGCAC_site9905]” the figure was 9.89; with “AACACCCATGGACACACACACATATATATATATATA [CACACA_site5809]”, 9.92.
With “TTTTTATAAGCATAAAGTACAAATATTTTTTAGTTG [XGTACX_site4140]” the figure was 8.86; with “TAAATCCGTTTGATGGGTACATACATACATACATAT [XGTACX_site8889]”, 9.27; with “ATTTATTTTAGTAAAGCACACGTGTAAAATATATCT [CACACA_site4820]”, 9.35.
With “ACAATAAAATATGGCACACATATATATATATATTTA [CACACA_site3]”, the “gcPBM binding intensity (ln)” value is 9.35.
Take “TCTTTTTTGAACTAGCGTACATGAAAATATTTATAG [XGTACX_site7359]”: the “gcPBM binding intensity (ln)” value turned out to be 9.
With “TTATTACATATAAAGGAAAATAGCATCTAGATTAAA [XGTACX_negctrl_site435]”, the “gcPBM binding intensity (ln)” value is 9.1.
“AAAAAAAAAAAAAAAAAATACATATACATTTGTGCA [CACACA_negctrl_site1431]”: the “gcPBM binding intensity (ln)” value was 9.12.
With “TTTTTATTTATATATAAGGAAAATGCGGTATATATT [CACACA_negctrl_site1770]” the figure was 9.24; with “AATTAAATATTATAAACACACATATAGATTATTTTT [CACACA_site6538]”, 9.38.
With “ATTTCTTATTAAATTACACACAAAGTAAATAAATCT [CACACA_site3924]” the figure was 9.27; with “ATTTTAAATATGGAATGTACTTAAAAAAAATTTCAT [XGTACX_site5058]”, 8.94.
With “TTGTTTTGGATTATCACACATATAATATATACTCAT [CACACA_site4780]”, the “gcPBM binding intensity (ln)” value stood at 9.46.
Under “TTTTCCTTTTTTTTTACATGCAGATATAGAAAGGTA [TGCATGCA_site106]” stands 8.82; under “TATAATAATATGGATTGTACATATATATTTAATTAA [XGTACX_site4327]”, 9.08.
In the case of “AAATACATAACTTAAAATTTGTTCATATCTATACAT [TGCATGCA_negctrl_site249]”, the “gcPBM binding intensity (ln)” value was 9.19.
For the sequence “GTAATTTTTTTCTATACACACATATCTATAATATAT [CACACA_site7284]”, the “gcPBM binding intensity (ln)” value turned out to be 9.75.
With “TACTTATAATTTCAATGTACATATATATAATATCAT [XGTACX_site2424]” the figure was 9.17.
Take “TATGTATAACTCAATGCATGCGAAGGACTATTATTT [TGCATGCA_site222]”: the “gcPBM binding intensity (ln)” value worked out at 9.34.
With AATATTGTTCACAAGGTGCTTTTTATTCATACTAAT the figure was 9.32; with “ACCTCACAAATGAATACACACAAACATATAGATTTA [CACACA_site6862]”, 9.7; with “ATATATAAAATTATATGTACATATATCTATTTATAA [XGTACX_site3713]”, 9.04.
As to “TTTAAAATTTCTTAATGTACGTAATAAAAAAAAAAA [XGTACX_site4037]”, the “gcPBM binding intensity (ln)” value was 8.94.
With “GATTAAAACTTTAACTGTACATAATAATTATCAATC [XGTACX_site5938]”, the “gcPBM binding intensity (ln)” value stood at 9.13.
Under “TATATGTATTTATATACACACATATTCTTTTTACAC [CACACA_site8320]” stands 9.47; under “AATATTTTGAACAACAGTACTCTTTCTTTCTTTCTT [XGTACX_site7212]”, 9.23; under “TCCTTTTCATCTTGTAGTACGGAAATGTAGCTCCAA [XGTACX_site8563]”, 9.09.
In the case of “TGTGTAAATATGTATACACACATATCTGATCAATAT [CACACA_site7507]”, the “gcPBM binding intensity (ln)” value was 9.45.
As for “TATATCTACTTAAAAAGTACGTAAATTATAAGCTAT [XGTACX_site6420]”, the “gcPBM binding intensity (ln)” value worked out at 8.97.
With “TATAAATATAGACACACACACACACCGAAGCGTAGC [CACACA_site6180]” the figure was 10.1; with “TCGTCACTTTAATATTGTACATATATATATATATAT [XGTACX_site8046]”, 9.41.
Under “AAAATTAATAAATAAACACACATATTTATATTTATA [CACACA_site7266]” stands 9.35; under “ATATATATATGTGCCAGTACACATGTATACATTATA [XGTACX_site3899]”, 9.29; under “GATATATATATTCACACACACATGGAAATATATATA [CACACA_site382]”, 9.79.
For “AACTTTTTACAAACAGGTACGCATATATATATATAT [XGTACX_site5081]”, the “gcPBM binding intensity (ln)” value came to 9.33.
Under “AAAATTTAAAAATGGACACACACAAAAAATAATACT [CACACA_site7972]” stands 10.1; under “AATAATTATTTGTATAGTACAATATACAAAAGATGA [XGTACX_site4312]”, 9.31; under “CACATACACATACAAACACACATTATATATATATAT [CACACA_site8460]”, 9.62.
On to “CATCCATTATTAATATGTACATATGTATATATATTA [XGTACX_site1318]”, for which the “gcPBM binding intensity (ln)” value was 9.25.
As to “GAAAAAAAAAAAAGGGGTACATTTATTTTATCAATA [XGTACX_site8331]”, the “gcPBM binding intensity (ln)” value came to 8.99.
In the case of “TTTTTTTTTTTTTTTTTTTTTTTCTTTATTTTTTTT [CACACA_negctrl_site703]”, the “gcPBM binding intensity (ln)” value came to 8.32.
With “TAAACACCCATATAAACACACATATAAACACCCATA [CACACA_site5382]” the figure was 9.84; with “TTTATTTATTTTTAACGTACGCACACATATAAATAT [XGTACX_site4042]”, 9.38.
Under “TATTTTTAATAAAAACGTACGGAATACAAAAAAAAT [XGTACX_site3477]” stands 9.4.
With “TATTATAAAATATACACATGCAAAAACAAAATTTAC [TGCATGCA_site1051]” the figure was 9.55; with “TATATACATTGGTATACATGCATTCTCTTTCATACA [TGCATGCA_site734]”, 9.31.
Consider “TAAAATTTATAAACTACACACATATAAATAGTAATA [CACACA_site7708]”, for which the “gcPBM binding intensity (ln)” value was 9.67.
